Patent US20240228620A1 (BICARA THERAPEUTICS, published 2024)

Assays:
Experiment in all cases: flow cytometry on CD3e knockout Jurkat cells
[1] = biological target: T1, BCA605 (MOR) (405 Format)
T1 construct: Trispecific multispecific protein against MSLN (MORab009 arm), CD3 and CD28

[2] = biological target: T2, BCA606 (MOR) (406 Format)
T2 construct: Trispecific multispecific protein against MSLN (MORab009 arm), CD3 and CD28

[3] = biological target: T3, BCA624 (MOR) (424 Format)
T3 construct: Trispecific multispecific protein against MSLN (MORab009 arm), CD3 and CD28

Measured: binding result

B1: CD28 expressed on the surface of CD3 knockout Jurkat cells (receptor)
chain: not shown
notes: Endogenous CD28 of Jurkat cells; also called CD28 on CD3 knock out Jurkat cells; CD3e knockout Jurkat cells
binds: all assays above
